# Data published in PubChem BioAssay (NCATS).
# Inconclusive results, whose numbers are uncertain, are shown with a selection of clear calls. For some assays here: Potencies of inconclusive entries are left out as doubtful fits. Active and inactive are the calls of the source. Unless noted, calls come from the whole dose curve; as a rule, active = well fitted curve in the direction sought with a large enough effect; inconclusive = small, poorly fitted or top-dose-only effect, or another doubt; inactive = no such curve, though single readings can be large; an effect the other way counts as inactive or inconclusive.
# Experiments:
# [1] = target: Cytochrome P450 2D6 (Homo sapiens) (UniProt P10635); experiment: qHTS Assay for Inhibitors and Substrates of Cytochrome P450 2D6 (AID 891);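 note: luciferin methyl ether substrate demethylated by CYP2D6 with NADPH regeneration; potency is the fitted concentration of half-maximal effect; nearly all actives have a fitted effect of over 60% in size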
# How it was run: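 Human CYP2D6 (5 nM) with 30 uM Luciferin-ME EGE (at Km) in 100 mM KPO4, compound preincubated 10 min, then NADPH regeneration system for 60 min at room temperature. Luciferin read by luminescence; normalized to 1.43 uM quinidine.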
# [2] = qHTS Assay for Identification of Small Molecule Agonists for NFkB Signaling Pathway (AID 928; calls by dose curve); conditions: NFkB beta-lactamase reporter cells, blue/green ratio
# How it was run: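 ME-180 NFkB-bla cells carry a beta-lactamase reporter under an NFkB response element. Compound plus 10 pM TNF alpha (final) was applied for 5 hrs at 37 C. After 2 hrs with LiveBLAzer substrate, 460/530 nm emission was read at 405 nm excitation.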
# [3] = target: Pyruvate kinase PKM (Homo sapiens) (UniProt P14618); experiment: qHTS Assay for Inhibitors of Human Muscle Pyruvate Kinase (AID 958); conditions: purified human PKM enzyme activity
# How it was run: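 PKM2, human, >95% pure, 0.1 nM; PEP 0.5 mM (Km), ADP 0.1 mM; 50 mM imidazole pH 7.2, 50 mM KCl, 0.01% Tween 20, 0.05% BSA; 1 h RT; luciferase luminescence readout.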
# [4] = HepG2 cells viability qHTS for Zika virus inhibitors (AID 1347168)
# How it was run: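 Cells seeded at 2.5 x 10^5 cells/mL in DMEM with 4% FBS and attached overnight at 37 degrees C, then exposed to compound for 24 to 48 hours. Viability read as ATP content by CellTiter Glo luminescence.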
# [5] = Cytometric Cell-Based qHTS for Inhibitors of the mTORC1 Signaling Pathway in MEF (Tsc2-/-, p53-/-) Cells (AID 2660); note: potency is the fitted concentration of half-maximal effect
# How it was run: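 Immunofluorescence qHTS of rpS6 Ser235/236 phosphorylation: MEFs (Tsc2-/-, p53-/-) treated 24 h, 37 C, in DMEM + 10% FBS. Alexa-488 signal normalized to PI count, referenced to rapamycin (7.5 nM) and DMSO; PI cell number recorded for viability.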
# [6] = High Content Imaging Cell-Based qHTS for Inhibitors of the mTORC1 Signaling Pathway in MEF (Tsc2-/-, p53-/-) Cells (AID 2666);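 note: percent of cells scored positive for phospho-rpS6 Ser235/236 immunostaining by imaging; potency is the fitted concentration of half-maximal effect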
# How it was run: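 Phospho-rpS6 (Ser235/236) immunofluorescence, normalized and scored as % positive cells using rapamycin and DMSO controls, was read in empty-vector Tsc2-/-, p53-/- MEFs after 24 h compound exposure at 37 C; propidium iodide counted cells.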
# [7] = target: D(1A) dopamine receptor (Homo sapiens) (UniProt P21728); experiment: HTS Assay for Allosteric Agonists of the Human D1 Dopamine Receptor: Primary Screen for Agonists (AID 488981); conditions: Inducible HEK293 T-REx D1 cells, calcium-flux fluorescence, 180 s kinetic; note: potency is the fitted concentration of half-maximal effect
# How it was run: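 Tetracycline-induced HEK293 Trex D1 cells with forced coupling to calcium, loaded with no-wash calcium dye; kinetic fluorescence read 180 s after compound addition for agonism, then a further 180 s after an EC20 dopamine challenge for potentiation.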
# [8] = Validation screen for small molecules that induce DNA re-replication in SW480 colon adenocarcinoma cells (AID 504364)
# How it was run: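 Cells are treated 48 hr with test compound, stained 40 min with Hoechst at 37 C, and scanned for nuclear fluorescence; compounds inducing re-replication increase nuclei with elevated intensity.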
# [9] = target: Protein phosphatase 1D (Homo sapiens) (UniProt O15297); experiment: Rhodamine-PBP qHTS Assay for Modulators of WT P53-Induced Phosphatase 1 (WIP1) (AID 1347425)
# How it was run: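 The read-out is the change in Rhodamine-PBP fluorescence (f1 - f0, ex 525/em 598 nm) as Pi is released, read each minute for 11 min. Final reaction: 5 nM WIP1, 10 uM phosphopeptide VEPPL-pS-QETFS, 10 uM Rh-PBP, 50 mM Tris-HCl pH 7.5, 30 mM MgCl2. Compound was preincubated with enzyme for 1 hour at room temperature.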
# [10] = qHTS of Nrf2 Activators: LOPAC Validation (AID 624149); note: potency is the fitted concentration of half-maximal effect
# How it was run: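 ARE reporter activation measured in AREc32 firefly luciferase cells after 24 hr compound exposure; Steady-Glo luminescence.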
# [11] = qHTS for differential inhibitors of proliferation of Plasmodium falciparum line HB3 (AID 1886); conditions: Potency: Plasmodium falciparum HB3 proliferation inhibition;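 note: potency is the fitted concentration of half-maximal effect; parasites grown with compound for 72 h before SYBR Green readout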
# [12] = target: Peptidyl-prolyl cis-trans isomerase NIMA-interacting 1 (Homo sapiens) (UniProt Q13526); experiment: qHTS Validation Assay to Find Inhibitors of Pin1 (AID 504536; active = well fitted inhibition curve with a large enough effect in the polarisation, with a control signal flat, not every such curve was filed as active; inconclusive = small, poorly fitted or top-dose-only effect, or effect the other way; the % refers to the polarisation; note: potency is the fitted concentration of half-maximal effect); conditions: Pin1 fluorescence polarization peptide binding assay
# How it was run: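 Fluorescence polarization competition: compounds (titration) displace HiFluor-488-labeled Pin1-1b peptide from Pin1 (0.3 uM final) in pH 7.5 HEPES buffer with DTT, 10 min at room temperature; %Activity normalized to no-enzyme wells, curves fitted.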
# [13] = Validation of Assay for Modulators of Lamin A Splicing (AID 1459; active = well fitted curve in the direction sought with a large enough effect in the signal ratio; inconclusive = small, poorly fitted or top-dose-only effect, or effect the other way, or a change in a side signal; inactive = no such curve, though single readings can be large or run the other way; the % refers to the signal ratio; note: potency is the fitted concentration of half-maximal effect); conditions: Lamin A splicing dual RFP/GFP fluorescence reporter; Potency: ratio unless noted; ratio change, both ways: at 9.22 µM unless noted
# How it was run: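 Splicing correction read as GFP (500-530 nm) over DsRed2 (575-640 nm) object intensity after 48 h compound exposure of reporter HeLa S3 clones (600 cells/well, 2% FBS medium); ancitabine and cycloheximide titrations, 0.5% DMSO as vehicle.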
# [14] = qHTS Assay for Modulators of Human Peripheral Myelin Protein 22 (PMP22) Expression/Activity (AID 1967; active = well fitted curve in the direction sought with a large enough effect in the signal ratio; inconclusive = small, poorly fitted or top-dose-only effect, or effect the other way, or a change in a side signal; inactive = no such curve, though single readings can be large or run the other way; the % refers to the signal ratio; note: potency is the fitted concentration of half-maximal effect); conditions: Cell-based PMP22 reporter, dual-color luciferase ratio, mouse Pmp22 promoter in mouse Schwann cells; series mostly up to 115 µM
# How it was run: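 Readout is the corrected green/red luminescence ratio after 24 h compound exposure, normalised to untreated cells (0%). Engineered MSC80 mouse Schwann cells express green luciferase from the mouse Pmp22 promoter and red luciferase from EF-alpha as internal control.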
# [15] = HTS Assay for Allosteric Antagonists of the Human D2 Dopamine Receptor: Hit Validation in HTRF (AID 624455);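 note: stable D1 dopamine receptor cell line scored for blocking the D1 response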
# How it was run: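 Signal from an HTRF read-out in D1-expressing stable cells gave hit activity as inhibition of the D1 response.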
# [16] = qHTS of pediatric cancer cell lines to identify multiple opportunities for drug repurposing: Confirmatory screen for MG 63 (6-TG R) cells (AID 1347119); conditions: MG-63 (6-TG resistant) osteosarcoma viability; series mostly up to 45.9 µM; note: potency is the fitted concentration of half-maximal effect; nearly all actives have a fitted effect of over 55% in size
# How it was run: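 Viability after 48 h compound treatment at 37C, 500-1,000 cells/well, read as ATP luminescence with CellTiter-Glo. Primary screens used 11-point (MIPE, 0.78 nM-46 µM) or 8-point (NPC, 0.59 nM-46 µM) final concentrations; follow-up screens used 11-point dilutions.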
# [17] = Quantitative High-Throughput drug screen in 47 multiple myeloma cell lines against the NCATS MIPE library collection: FR4_PLB cell viability assay (AID 1918924; note: nearly all actives have a fitted effect of over 35% in size)
# How it was run: (§1)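 Inhibition of cell viability is measured here. Each line was plated at 500 cells per well, treated with MIPE 4.0 drugs, kept 48 hours at 37C, then assayed for ATP content by CellTiter-Glo luminescence.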
# [18] = Quantitative High-Throughput drug screen in 47 multiple myeloma cell lines against the NCATS MIPE library collection: Karpas620_DSMZ cell viability assay (AID 1918959); note: potency is the fitted concentration of half-maximal effect; nearly all actives have a fitted effect of over 30% in size
# How it was run: as §1
# [19] = Quantitative High-Throughput drug screen in 47 multiple myeloma cell lines against the NCATS MIPE library collection: OCIMY5_PLB cell viability assay (AID 1918988); note: potency is the fitted concentration of half-maximal effect; nearly all actives have a fitted effect of over 65% in size
# How it was run: (§2)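 Viability after 48 h drug exposure was measured as ATP-dependent luminescence. Cells, 500 per well, sat at 37 °C under 5% CO2; DMSO wells set 100%, media-only wells 0%.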
# [20] = Quantitative High-Throughput drug screen in 47 multiple myeloma cell lines against the NCATS MIPE library collection: RPMI8226_ATCC cell viability assay (AID 1919871); note: potency is the fitted concentration of half-maximal effect; nearly all actives have a fitted effect of over 30% in size
# How it was run: as §2
# Tags give direction and shape of the fitted curve or compound fluorescence and quenching.
# Sequence of UniProt O15297 (O15297 whole entry, looked up): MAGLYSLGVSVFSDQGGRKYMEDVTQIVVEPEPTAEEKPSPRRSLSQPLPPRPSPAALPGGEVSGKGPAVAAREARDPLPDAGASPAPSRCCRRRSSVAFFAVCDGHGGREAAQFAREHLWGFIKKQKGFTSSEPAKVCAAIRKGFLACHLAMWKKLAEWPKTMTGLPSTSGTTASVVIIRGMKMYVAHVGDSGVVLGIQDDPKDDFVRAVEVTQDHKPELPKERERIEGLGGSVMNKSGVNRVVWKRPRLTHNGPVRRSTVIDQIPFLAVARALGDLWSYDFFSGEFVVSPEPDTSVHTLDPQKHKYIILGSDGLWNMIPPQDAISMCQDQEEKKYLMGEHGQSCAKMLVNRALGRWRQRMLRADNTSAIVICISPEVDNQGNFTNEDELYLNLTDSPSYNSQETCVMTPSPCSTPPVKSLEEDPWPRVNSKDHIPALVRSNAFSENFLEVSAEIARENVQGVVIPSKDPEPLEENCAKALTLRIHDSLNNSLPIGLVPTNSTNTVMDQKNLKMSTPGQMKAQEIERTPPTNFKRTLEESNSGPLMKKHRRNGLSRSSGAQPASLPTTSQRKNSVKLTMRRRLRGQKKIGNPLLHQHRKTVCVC
# Sequence of UniProt P10635 (P10635 whole entry, looked up): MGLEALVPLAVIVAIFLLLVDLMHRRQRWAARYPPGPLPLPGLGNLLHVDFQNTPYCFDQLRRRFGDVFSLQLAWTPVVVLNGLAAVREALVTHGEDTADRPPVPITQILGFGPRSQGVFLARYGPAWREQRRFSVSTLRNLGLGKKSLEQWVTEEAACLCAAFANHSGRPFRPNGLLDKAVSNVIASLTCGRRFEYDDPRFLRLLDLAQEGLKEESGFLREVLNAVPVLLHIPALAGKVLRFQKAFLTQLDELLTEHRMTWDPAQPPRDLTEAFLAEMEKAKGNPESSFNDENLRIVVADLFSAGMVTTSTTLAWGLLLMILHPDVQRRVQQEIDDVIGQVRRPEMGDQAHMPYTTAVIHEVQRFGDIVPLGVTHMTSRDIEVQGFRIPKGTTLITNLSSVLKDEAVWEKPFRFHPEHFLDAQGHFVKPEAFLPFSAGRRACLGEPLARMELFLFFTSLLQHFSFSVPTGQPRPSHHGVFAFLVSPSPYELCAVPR
# Sequence of UniProt P14618 (P14618 whole entry, looked up): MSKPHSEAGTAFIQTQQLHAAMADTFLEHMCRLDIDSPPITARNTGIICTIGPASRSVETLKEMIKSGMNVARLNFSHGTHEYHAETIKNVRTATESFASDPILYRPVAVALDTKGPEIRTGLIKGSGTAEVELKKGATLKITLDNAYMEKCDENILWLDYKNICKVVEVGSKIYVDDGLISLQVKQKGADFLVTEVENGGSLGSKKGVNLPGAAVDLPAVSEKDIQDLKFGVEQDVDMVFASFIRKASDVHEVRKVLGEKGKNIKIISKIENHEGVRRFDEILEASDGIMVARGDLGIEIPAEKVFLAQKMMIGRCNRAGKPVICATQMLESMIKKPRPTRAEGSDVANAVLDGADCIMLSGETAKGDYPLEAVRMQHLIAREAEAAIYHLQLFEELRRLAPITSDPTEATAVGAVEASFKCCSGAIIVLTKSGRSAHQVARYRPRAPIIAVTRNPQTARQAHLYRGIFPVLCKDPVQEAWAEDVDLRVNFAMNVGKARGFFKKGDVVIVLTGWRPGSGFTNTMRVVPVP
# Sequence of UniProt P21728 (P21728 whole entry, looked up): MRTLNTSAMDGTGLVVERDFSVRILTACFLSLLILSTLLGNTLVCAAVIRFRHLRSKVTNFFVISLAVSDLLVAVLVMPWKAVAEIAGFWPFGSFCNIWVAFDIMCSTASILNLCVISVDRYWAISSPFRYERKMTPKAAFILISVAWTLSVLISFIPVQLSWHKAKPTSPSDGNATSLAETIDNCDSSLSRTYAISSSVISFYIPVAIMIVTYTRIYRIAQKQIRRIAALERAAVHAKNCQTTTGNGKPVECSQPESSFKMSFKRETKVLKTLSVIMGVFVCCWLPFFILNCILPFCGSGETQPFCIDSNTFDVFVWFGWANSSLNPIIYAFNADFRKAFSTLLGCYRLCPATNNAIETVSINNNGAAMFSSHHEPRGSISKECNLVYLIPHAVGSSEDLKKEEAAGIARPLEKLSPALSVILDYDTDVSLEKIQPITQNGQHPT
# Sequence of UniProt Q13526 (Q13526 whole entry, looked up): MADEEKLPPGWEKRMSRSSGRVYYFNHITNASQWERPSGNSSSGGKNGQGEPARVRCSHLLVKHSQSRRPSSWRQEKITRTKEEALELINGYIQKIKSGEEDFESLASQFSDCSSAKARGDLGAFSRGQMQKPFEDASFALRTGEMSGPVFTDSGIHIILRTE
smiles,measurement,setting,value
Cc1nc2sccn2c(=O)c1CCN1CCC(=C(c2ccc(F)cc2)c2ccc(F)cc2)CC1,Potency,[1],active: 10 µM
same,Potency,[2],"inconclusive [inhibitor, partial curve]"
same,Potency,[3],"inconclusive [inhibitor, full curve, poor fit]"
same,Potency,[4],inactive
CN[C@H]1CC[C@@H](c2ccc(Cl)c(Cl)c2)c2ccccc21,Potency,[5],"inconclusive [falling, single point]"
same,Potency,[6],"inconclusive [falling, single point]"
same,Potency,[7],active: 11.2 µM
same,Potency,[8],inactive
same,Potency,[9],inactive
CC1=C(C)C(=O)C(CCCCC#CCCCC#CCO)=C(C)C1=O,Potency,[10],"inconclusive [activator, partial curve, poor fit]"
COC(=O)[C@@H](N)Cc1ccc(O)c(O)c1,Potency,[11],"inconclusive [inhibitor, partial curve]"
same,Potency,[12],"inconclusive [falling, partial curve, poor fit]"
CC(C)[N+](C)(CCOC(=O)C1c2ccccc2Oc2ccccc21)C(C)C,Potency,[13],"inconclusive [activator, partial curve]"
same,Potency,[14],"inconclusive [activator, partial curve, poor fit]"
same,Potency,[15],inactive
O=C(NCc1ccccc1)[C@H](Cc1ccccc1)NC(=O)[C@@H]1O[C@@H]1C(=O)NCCc1ccc(O)cc1,Potency,[16],"inconclusive [cytotoxic, full curve, poor fit]"
same,Potency,[17],inactive
same,Potency,[18],active: 26.4 µM
same,Potency,[19],"inconclusive [rising, partial curve, poor fit]"
same,Potency,[20],"inconclusive [cytotoxic, partial curve, poor fit]"
